Experimental findings from article PMC9911399, “Two distinct binding modes provide the RNA-binding protein RbFox with extraordinary sequence specificity” are described below.

Positions count from the first letter of the chain named. The list shows a part of the results.

To fix the notation:
T1: RBFOX1 RRM (Homo sapiens, UniProt Q9NWB1 109-208)
T1 sequence: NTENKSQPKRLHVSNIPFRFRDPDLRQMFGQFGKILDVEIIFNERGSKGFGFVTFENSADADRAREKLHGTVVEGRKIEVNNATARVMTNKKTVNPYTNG

B1: GUCAGUG (DNA:RNA)
RNA: GGGAGACCGGAAUUCAGAUUGUCCGUCAGUGUUAAAUCCCGUCGUAGCCACCA
DNA 1: CAATCTGAATTCCGGTCTCCC
DNA 2: TGGTGGCTACGACGGGATT
B2: GAACUCU (DNA:RNA)
RNA: B1 RNA with U26A, C27A, A28C, G29U, U30C, G31U
DNA 1: CAATCTGAATTCCGGTCTCCC
DNA 2: TGGTGGCTACGACGGGATT
B3: UAUGGGU (DNA:RNA)
RNA: B1 RNA with G25U, U26A, C27U, A28G, U30G, G31U
DNA 1: CAATCTGAATTCCGGTCTCCC
DNA 2: TGGTGGCTACGACGGGATT
B4: ACUCACC (DNA:RNA)
RNA: GGGAGACCGGAAUUCAGAUUGUCCACUCACCUUAAAUCCCGUCGUAGCCACCA
DNA 1: CAATCTGAATTCCGGTCTCCC
DNA 2: TGGTGGCTACGACGGGATT
B5: ACAAACU (DNA:RNA)
RNA: B4 RNA with U27A, C28A, C31U
DNA 1: CAATCTGAATTCCGGTCTCCC
DNA 2: TGGTGGCTACGACGGGATT
B6: UGAUGUG (DNA:RNA)
RNA: B1 RNA with G25U, U26G, C27A, A28U
DNA 1: CAATCTGAATTCCGGTCTCCC
DNA 2: TGGTGGCTACGACGGGATT
B7: CUGGGAU (DNA:RNA)
RNA: B1 RNA with G25C, C27G, A28G, U30A, G31U
DNA 1: CAATCTGAATTCCGGTCTCCC
DNA 2: TGGTGGCTACGACGGGATT
B8: GAAUCAU (DNA:RNA)
RNA: B1 RNA with U26A, C27A, A28U, G29C, U30A, G31U
DNA 1: CAATCTGAATTCCGGTCTCCC
DNA 2: TGGTGGCTACGACGGGATT
B9: ACCCGCA (DNA:RNA)
RNA: B4 RNA with U27C, A29G, C31A
DNA 1: CAATCTGAATTCCGGTCTCCC
DNA 2: TGGTGGCTACGACGGGATT
B10: GAUCAUA (DNA:RNA)
RNA: B4 RNA with A25G, C26A, C30U, C31A
DNA 1: CAATCTGAATTCCGGTCTCCC
DNA 2: TGGTGGCTACGACGGGATT
B11: GUAGGCC (DNA:RNA)
RNA: B1 RNA with C27A, A28G, U30C, G31C
DNA 1: CAATCTGAATTCCGGTCTCCC
DNA 2: TGGTGGCTACGACGGGATT
B12: AGGGACU (DNA:RNA)
RNA: B4 RNA with C26G, U27G, C28G, C31U
DNA 1: CAATCTGAATTCCGGTCTCCC
DNA 2: TGGTGGCTACGACGGGATT
B13: UAGCUAC (DNA:RNA)
RNA: B4 RNA with A25U, C26A, U27G, A29U, C30A
DNA 1: CAATCTGAATTCCGGTCTCCC
DNA 2: TGGTGGCTACGACGGGATT
B14: ACGCUAG (DNA:RNA)
RNA: B4 RNA with U27G, A29U, C30A, C31G
DNA 1: CAATCTGAATTCCGGTCTCCC
DNA 2: TGGTGGCTACGACGGGATT
B15: GAGUCGC (DNA:RNA)
RNA: B4 RNA with A25G, C26A, U27G, C28U, A29C, C30G
DNA 1: CAATCTGAATTCCGGTCTCCC
DNA 2: TGGTGGCTACGACGGGATT
B16: AUCACGU (DNA:RNA)
RNA: B1 RNA with G25A, G29C, U30G, G31U
DNA 1: CAATCTGAATTCCGGTCTCCC
DNA 2: TGGTGGCTACGACGGGATT
B17: GGAGCGC (DNA:RNA)
RNA: B4 RNA with A25G, C26G, U27A, C28G, A29C, C30G
DNA 1: CAATCTGAATTCCGGTCTCCC
DNA 2: TGGTGGCTACGACGGGATT
B18: AUACGAC (DNA:RNA)
RNA: B4 RNA with C26U, U27A, A29G, C30A
DNA 1: CAATCTGAATTCCGGTCTCCC
DNA 2: TGGTGGCTACGACGGGATT
B19: CUCCCGU (DNA:RNA)
RNA: B1 RNA with G25C, A28C, G29C, U30G, G31U
DNA 1: CAATCTGAATTCCGGTCTCCC
DNA 2: TGGTGGCTACGACGGGATT
B20: GAAUUCU (DNA:RNA)
RNA: B4 RNA with A25G, C26A, U27A, C28U, A29U, C31U
DNA 1: CAATCTGAATTCCGGTCTCCC
DNA 2: TGGTGGCTACGACGGGATT
B21: CUGCGUA (DNA:RNA)
RNA: B1 RNA with G25C, C27G, A28C, G31A
DNA 1: CAATCTGAATTCCGGTCTCCC
DNA 2: TGGTGGCTACGACGGGATT
B22: UUAAGCC (DNA:RNA)
RNA: B1 RNA with G25U, C27A, U30C, G31C
DNA 1: CAATCTGAATTCCGGTCTCCC
DNA 2: TGGTGGCTACGACGGGATT
B23: GCCCAGC (DNA:RNA)
RNA: B4 RNA with A25G, U27C, C30G
DNA 1: CAATCTGAATTCCGGTCTCCC
DNA 2: TGGTGGCTACGACGGGATT
B24: CUGAUCU (DNA:RNA)
RNA: B1 RNA with G25C, C27G, G29U, U30C, G31U
DNA 1: CAATCTGAATTCCGGTCTCCC
DNA 2: TGGTGGCTACGACGGGATT
B25: ACGACCA (DNA:RNA)
RNA: B4 RNA with U27G, C28A, A29C, C31A
DNA 1: CAATCTGAATTCCGGTCTCCC
DNA 2: TGGTGGCTACGACGGGATT
B26: GCUCCGG (DNA:RNA)
RNA: B4 RNA with A25G, A29C, C30G, C31G
DNA 1: CAATCTGAATTCCGGTCTCCC
DNA 2: TGGTGGCTACGACGGGATT
B27: GCAAGAU (DNA:RNA)
RNA: B1 RNA with U26C, C27A, U30A, G31U
DNA 1: CAATCTGAATTCCGGTCTCCC
DNA 2: TGGTGGCTACGACGGGATT
B28: CGUGGGA (DNA:RNA)
RNA: B4 RNA with A25C, C26G, C28G, A29G, C30G, C31A
DNA 1: CAATCTGAATTCCGGTCTCCC
DNA 2: TGGTGGCTACGACGGGATT
B29: GUCGGCU (DNA:RNA)
RNA: B1 RNA with A28G, U30C, G31U
DNA 1: CAATCTGAATTCCGGTCTCCC
DNA 2: TGGTGGCTACGACGGGATT
B30: GUUGGUC (DNA:RNA)
RNA: B1 RNA with C27U, A28G, G31C
DNA 1: CAATCTGAATTCCGGTCTCCC
DNA 2: TGGTGGCTACGACGGGATT
B31: UCUAGCC (DNA:RNA)
RNA: B4 RNA with A25U, C28A, A29G
DNA 1: CAATCTGAATTCCGGTCTCCC
DNA 2: TGGTGGCTACGACGGGATT

For this assay, the target named is T1, RBFOX1 RRM. Put plainly: EMSA; HiTS-Eq, 1 nM pool, 10 min; buffer printed only for the single-RNA assays: 10 mM Tris pH 7.5, 150 mM NaCl, 3.4 mM EDTA, 0.001% NP-40, 30 C. Conditions: tags: His6 N-terminal (pET28a); label: 5' 32P. The procedure, abridged: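 Purified RbFox RRM (wild type or mutant) was equilibrated for 10 min in 50 µL with 1 nM of a 5′-radiolabelled pool of RNA with 7 randomized nucleotides, its flanks annealed to DNA oligonucleotides, across increasing protein concentrations. Free RNA was separated by 8% native PAGE, excised, reverse-transcribed, PCR-barcoded and sequenced on an Illumina HiSeq 2500. Relative association constants came from read-count changes of each variant against the control reaction, normalised to the cognate motif.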
In the case of B1, the binding signal was 0.0134 KA relative to UGCAUGU.

Regarding B2, the binding signal is 0.00576 KA relative to UGCAUGU.

On to B3, for which the binding signal is 0.00854 KA relative to UGCAUGU.

B4: the binding signal was 0.00156 KA relative to UGCAUGU.

Regarding B5, the binding signal is 0.000249 KA relative to UGCAUGU.

As to B6, the binding signal was 0.0174 KA relative to UGCAUGU.

Regarding B7, the binding signal is 0.0159 KA relative to UGCAUGU.

Consider B8, for which the binding signal is 0.00748 KA relative to UGCAUGU.

Consider B9, for which the binding signal was 0.00659 KA relative to UGCAUGU.

For B10, the binding signal was 0.00392 KA relative to UGCAUGU.

B11: the binding signal is 0.00837 KA relative to UGCAUGU.

As for B12, the binding signal was 0.0153 KA relative to UGCAUGU.

With B13, the binding signal is 0.0152 KA relative to UGCAUGU.

As to B14, the binding signal is 0.0149 KA relative to UGCAUGU.

B15: the binding signal was 0.015 KA relative to UGCAUGU.

On to B16, for which the binding signal was 0.00386 KA relative to UGCAUGU.

Turning to B17, the binding signal is 0.022 KA relative to UGCAUGU.

For the molecule B18, the binding signal was 0.00301 KA relative to UGCAUGU.

Take B19: the binding signal was 0.00391 KA relative to UGCAUGU.

For the molecule B20, the binding signal was 0.0106 KA relative to UGCAUGU.

Turning to B21, the binding signal is 0.0152 KA relative to UGCAUGU.

Consider B22, for which the binding signal was 0.00784 KA relative to UGCAUGU.

In the case of B23, the binding signal is 0.00937 KA relative to UGCAUGU.

With B24, the binding signal was 0.0119 KA relative to UGCAUGU.

For the molecule B25, the binding signal was 0.003 KA relative to UGCAUGU.

On to B26, for which the binding signal was 0.00735 KA relative to UGCAUGU.

Consider B27, for which the binding signal is 0.0115 KA relative to UGCAUGU.

For the molecule B28, the binding signal is 0.00274 KA relative to UGCAUGU.

For B29, the binding signal was 0.0193 KA relative to UGCAUGU.

In the case of B30, the binding signal is 0.0255 KA relative to UGCAUGU.

With B31, the binding signal was 0.0097 KA relative to UGCAUGU.
